# Laboratory results as given in PubChem BioAssay AID504332 (National Center for Advancing Translational Sciences (NCATS), 2011).
# Where “and” joins values, the source holds several entries; their conditions need not be identical. Equal values may be shown once. About 31,000 (8.9%) of roughly 350,000 compounds were called active. This list was built around the results that the source calls inconclusive (neither active nor inactive); the mix of calls is not that of the screen. The call rests on the fitted dose curve; in most records, active means well fitted inhibition curve with a large enough effect; inconclusive means small, poorly fitted or top-dose-only effect; inactive means no such curve, though single readings can be large or run the other way. Where the call is inconclusive, the potency comes from a doubtful curve fit. Where a SMILES comes first, the peptide text is derived from it. [ ]: non-standard residue; d: D form. The star is where a group is joined. ξ: configuration not given here. Tos = Cc1ccc(S(=O)(=O)*)cc1; Inp = O=C(O)C1CCNCC1; ξP = O=C(O)C1CCCN1
# Target: Histone-lysine N-methyltransferase EHMT2 (Homo sapiens) (UniProt Q96KQ7)
# UniProt Q96KQ7, sequence (Q96KQ7 whole entry, looked up): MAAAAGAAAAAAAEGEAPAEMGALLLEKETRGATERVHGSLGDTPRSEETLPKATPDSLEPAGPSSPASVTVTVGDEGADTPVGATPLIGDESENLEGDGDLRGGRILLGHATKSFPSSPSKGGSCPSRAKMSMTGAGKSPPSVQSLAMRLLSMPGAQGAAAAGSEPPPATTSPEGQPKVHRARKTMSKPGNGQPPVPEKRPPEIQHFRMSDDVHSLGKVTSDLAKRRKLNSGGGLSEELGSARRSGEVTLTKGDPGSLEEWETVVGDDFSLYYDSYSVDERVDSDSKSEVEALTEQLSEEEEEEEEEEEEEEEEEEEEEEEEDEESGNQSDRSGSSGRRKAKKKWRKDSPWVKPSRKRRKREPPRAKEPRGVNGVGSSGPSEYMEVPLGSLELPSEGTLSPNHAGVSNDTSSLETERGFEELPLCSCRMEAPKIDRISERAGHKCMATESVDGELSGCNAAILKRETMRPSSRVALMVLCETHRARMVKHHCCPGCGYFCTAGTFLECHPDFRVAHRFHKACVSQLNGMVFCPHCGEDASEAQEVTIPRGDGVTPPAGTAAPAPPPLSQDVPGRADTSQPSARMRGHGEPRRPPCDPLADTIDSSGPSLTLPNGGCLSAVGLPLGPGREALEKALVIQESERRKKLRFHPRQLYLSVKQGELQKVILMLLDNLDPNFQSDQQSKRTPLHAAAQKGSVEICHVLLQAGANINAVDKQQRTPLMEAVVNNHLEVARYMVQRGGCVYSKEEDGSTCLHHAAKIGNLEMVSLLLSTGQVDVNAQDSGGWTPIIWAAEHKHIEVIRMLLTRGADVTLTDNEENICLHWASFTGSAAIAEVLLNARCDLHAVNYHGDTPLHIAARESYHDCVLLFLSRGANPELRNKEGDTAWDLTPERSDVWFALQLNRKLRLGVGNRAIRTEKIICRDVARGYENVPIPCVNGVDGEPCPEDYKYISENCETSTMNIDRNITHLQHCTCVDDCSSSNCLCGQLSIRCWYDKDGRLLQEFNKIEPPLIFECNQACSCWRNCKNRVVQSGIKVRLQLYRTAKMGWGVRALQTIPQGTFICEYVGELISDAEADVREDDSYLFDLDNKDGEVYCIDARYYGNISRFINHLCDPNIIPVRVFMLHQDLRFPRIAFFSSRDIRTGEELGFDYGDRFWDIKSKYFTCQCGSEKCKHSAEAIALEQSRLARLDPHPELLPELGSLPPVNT
# Test: qHTS Assay for Inhibitors of Histone Lysine Methyltransferase G9a; further: nearly all actives have a fitted effect of over 75% in size
# Settings: G9a H3K9 monomethylation, AlphaScreen, 2 h; activity, negative = inhibition: at 59 µM (top of the series) unless noted
# Procedure, shortened: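 Quantitative HTS format: methyltransferase activity on a biotin-tagged H3K9 peptide is measured by AlphaScreen, using a rabbit anti-monomethyl-H3K9 antibody with streptavidin donor and anti-IgG acceptor beads. Final levels are 20 nM enzyme, 500 nM peptide, 20 uM SAM; 2 h RT.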
# On the % scale 0 is the no-effect control and ±100 the full control effect; potency means the concentration at half of the fitted maximal effect; tags describe the fitted curve by direction and shape.
Structure (SMILES),Potency,"activity, negative = inhibition"
COc1ccc(NCc2cc(=O)[nH]c3ccccc23)cc1,"inconclusive: 31.6 µM [inhibitor, partial curve, poor fit]",–
COc1ccc(CCN2CN(S(=O)(=O)c3ccccc3)c3nc4ccccc4nc32)cc1,"inconclusive: 39.8 µM [inhibitor, single point]",–
O=C(NCc1ccco1)c1ccc2c(c1)N(Cc1cccc(Cl)c1)C(=O)c1ccccc1S2=O (configuration not stated),inactive,–
CCn1ccc(C(=O)NC2C(=O)N3C(C(=O)O)=C(C)CSC23)n1 (configuration not stated),active: 22.4 µM,–
FCCCOc1ccc(-c2nccc(-c3ccccn3)n2)cc1,inactive,–
CC(=O)N(C)c1ccc(NC(=O)c2ccco2)cc1,"inconclusive: 50.1 µM [inhibitor, partial curve, poor fit]",–
OCCN1CCN(Cc2cc(Cl)c3cccnc3c2O)CC1,active: 50.1 µM,–
Cc1nnc(C)n1/N=C/c1ccc(-c2ccccc2)cc1,"inconclusive: 63.1 µM [inhibitor, partial curve, poor fit]",–
CCCCn1c(SCC(=O)Nc2nnc(C)s2)nnc1-c1ccoc1C,inactive,–
Cc1ccc2[nH]c3c(=O)n(CC(=O)N4CCCC(C)C4)ncc3c2c1 (configuration not stated),inactive,–
C=Cn1cc[n+](CC(=O)c2ccc(OC)c(OC)c2)c1,"inconclusive: 56.2 µM [inhibitor, single point]",–
CCCCCc1nnc(NC(=O)C2CCCO2)s1 (configuration not stated),–,inconclusive: -53.9% [inhibitor]
Fc1ccc(-c2csc(NC(=S)Nc3ccccc3)n2)cc1,"inconclusive: 79.4 µM [inhibitor, single point]",–
CCC(=O)N(Cc1ccco1)c1nc(C(=O)Nc2ccc(Cl)cc2)c(C)s1,"inconclusive: 39.8 µM [inhibitor, single point]",–
CC(C)NC(=O)COc1coc(CN2CCN(c3ccccc3F)CC2)cc1=O,inactive,–
O=c1c2cc(Cl)ccc2[nH]c(=S)n1Cc1ccccn1,"inconclusive: 28.2 µM [inhibitor, single point]",–
CC(C)(C)Cn1c(=O)[nH]c(=O)c2cc([N+](=O)[O-])cnc21,"inconclusive: 79.4 µM [inhibitor, single point]",–
O=C(OCc1ccccc1)C1=[N+]([O-])OC(C(=O)OCc2ccccc2)C1c1c[nH]c2ccccc12 (configuration not stated),"inconclusive: 4.47 µM [inhibitor, full curve, poor fit]",–
Cc1cc(C)c2ccc(C(=O)O)nc2c1O,"inconclusive: 5.01 µM [inhibitor, full curve, poor fit]",–
O=C(NCCCl)C1Cc2c(ccc3ccccc23)O1 (configuration not stated),active: 39.8 µM,–
Cc1cccc2sc(N(Cc3cccnc3)C(=O)COc3ccccc3)nc12,inactive,–
Cc1ccc(C(=O)NN2C(=O)/C(=C/c3cccn3C)SC2=S)cc1,"inconclusive: 22.4 µM [inhibitor, single point]",–

Structure (SMILES),Potency,"activity, negative = inhibition"
CN1CCN(S(=O)(=O)c2ccc(Cl)s2)CC1,"inconclusive: 35.5 µM [inhibitor, partial curve, poor fit]",–
Cc1ccc(C(N)=O)cc1S(=O)(=O)Nc1cccc(C)c1C,–,inconclusive: -82.3% [inhibitor]
O=c1[nH]n(CCO)c(=O)c2cccnc12,"inconclusive: 25.1 µM [inhibitor, single point]",–
Cc1nn2cnnc2c(C)c1Cc1c(F)cccc1Cl,inactive,–
Cc1ccc(S(=O)(=O)N2CCC(C(=O)N3CCCC3C(=O)N[C@@H](CC(C)C)C(=O)NCC(N)=O)CC2)cc1 (stereo partly drawn) ({Tos-Inp}-[ξP]-Leu-Gly-NH2),"inconclusive: 11.2 µM [inhibitor, single point]",–
CCc1c(C)c(C#N)c2nc3ccccc3n2c1Nc1cccc(C(F)(F)F)c1,inactive,–
COc1ccc(S(=O)(=O)Cc2ccc(C(=O)NCCCN3CCc4ccccc4C3)o2)cc1,"inconclusive: 89.1 µM [inhibitor, single point]",–
CCOC(=O)c1c(CN(CC)CC)n(C)c2cc(Br)c(O)cc12,"inconclusive: 79.4 µM [inhibitor, single point]",–
COc1ccc(-c2nc(S(=O)(=O)c3ccc(C)cc3)c(NCc3ccccc3)o2)cc1,active: 11.2 µM,–
CN1CCN(C(=O)c2ccc3c(=O)n(-c4ccc(F)cc4)c(=S)[nH]c3c2)CC1,–,inconclusive: -91.4% [inhibitor] [at 12.7 µM]
O=C1c2cccc(O)c2C(=O)c2c(O)cccc21,active: 3.55 µM and active: 7.94 µM,–
O=c1cc(O)c2sc3nc(-c4ccccc4)cc(C(F)(F)F)c3c2[nH]1,"inconclusive: 11.2 µM [inhibitor, partial curve, poor fit]",–
CC(=O)NC1C(OCCOc2ccc(Cl)cc2C)OC(CO)C(O)C1O (configuration not stated),inactive,–
CC(C)c1ccc(NC(=O)Cn2c(=O)oc3cc(S(=O)(=O)N4CCCC4)ccc32)cc1,inactive,–
O=C(CNc1cccc2ccccc12)N/N=C/c1ccccn1,"inconclusive: 50.1 µM [inhibitor, partial curve, poor fit]",–
O=C(COC(=O)c1ncc(Cl)c(Cl)c1Cl)NC(=O)NCc1ccccc1,"inconclusive: 39.8 µM [inhibitor, partial curve]",–
c1ccc(Oc2cccc(OCCCCN3CCCC3)c2)cc1,"inconclusive: 7.94 µM [inhibitor, full curve, poor fit]",–
CCOc1cc(N2CCOCC2)c(OCC)cc1NC(=O)CN1CCCC(C)C1 (configuration not stated),"inconclusive: 35.5 µM [inhibitor, single point]",–
CCCCOc1ccc(CSC2=NCCN2)cc1[N+](=O)[O-],"inconclusive: 25.1 µM [inhibitor, single point]",–
CCCC(CCC)n1[nH]c(=O)c2c(C)cc(C)nc21,"inconclusive: 89.1 µM [inhibitor, partial curve, poor fit]",–
Cc1noc(-c2ccc(-c3noc(-c4ccc(C(F)(F)F)cc4)n3)cc2)n1,inactive,–
CC1=NN(c2ccccc2)C(=O)/C1=C\c1ccc(Oc2ccc([N+](=O)[O-])cc2[N+](=O)[O-])cc1,active: 44.7 µM,–

Structure (SMILES),Potency,"activity, negative = inhibition"
CC(=O)c1cccc(S(=O)(=O)NC2CC2)c1,active: 44.7 µM,–
COc1ccc(OC)c(S(=O)(=O)Nc2cnc3ccccc3c2)c1,"inconclusive: 10 µM [inhibitor, partial curve, poor fit]",–
Cc1ccccc1Nc1nnc(SCC2CCCCO2)s1 (configuration not stated),"inconclusive: 39.8 µM [inhibitor, single point]",–
CCCCn1c(N)c(N(CCOC)C(=O)c2ccc(C)c(S(=O)(=O)N3CCCCC3)c2)c(=O)[nH]c1=O,"inconclusive: 89.1 µM [inhibitor, partial curve, poor fit]",–
O=C(N/N=C/c1ccccc1)c1ccc(CN2C(=O)c3cccc4cccc2c34)cc1,inactive,–
CCCCCCC1CC(CCc2nc(=S)[nH][nH]2)C(=O)O1 (configuration not stated),active: 1.58 µM,–
Cc1cc(SCC(=O)c2ccccc2)nc(=O)[nH]1,active: 22.4 µM,–
Cc1ccc(S(=O)(=O)NC(=O)N2CCCN(Cc3ccc(F)cc3)CC2)cc1,"inconclusive: 50.1 µM [inhibitor, partial curve]",–
CCCCN(C(=O)Cc1ccc2c(c1)OCCO2)c1c(N)n(CCC)c(=O)[nH]c1=O,"inconclusive: 31.6 µM [inhibitor, single point]",–
O=C(c1cccc(Cl)c1)N1CCn2c1nc1ccccc12,inactive,–
Cc1ccc(-n2c(SCC(=O)O)nc3c(sc(=S)n3-c3ccc(C)c(C)c3)c2=O)cc1,"inconclusive: 89.1 µM [inhibitor, single point]",–
CCOc1cc(/C=N/Nc2ccccc2Cl)ccc1OCC(=O)O,active: 10 µM,–
CCCCc1nc2cc(C(=O)NCCc3cnn(C)c3)ccc2o1,inactive,–
O=C(O)c1cccc(Cn2cccn2)c1,"inconclusive: 89.1 µM [inhibitor, partial curve, poor fit]",–
O=C(COc1ccccc1Cl)N1CCN(C(=O)c2ccco2)CC1,"inconclusive: 89.1 µM [inhibitor, single point]",–
CCOc1ccc(CC(=O)NCc2ccc3c(c2)CCN3C(C)=O)cc1OCC,inactive,–
CN(C)CCNC(=O)Cn1nc(N2CCN(c3ccccc3)CC2)ccc1=O,"inconclusive: 0.282 µM [inhibitor, partial curve, poor fit]",–
O=C(Cc1ccc(Br)cc1)Nc1ccc(S(=O)(=O)NCC2CCCO2)cc1 (configuration not stated),–,inactive: 7.49% [at 12.7 µM]
CCOC(=O)C1CCN(c2c(NCCCN3CCN(Cc4ccccc4)CC3)c(=O)c2=O)CC1,"inconclusive: 7.08 µM [inhibitor, single point]",–
Cc1ccc(-c2cc(C(=O)Nc3cccnc3)c3ccccc3n2)o1,active: 8.91 µM,–
Cc1ccc(CN2CCN(/N=C/c3cc(Br)cc(Br)c3O)CC2)c(C)c1,active: 39.8 µM,–
COc1ccc(C(=O)Nc2ccc(-c3cn4ccsc4n3)cc2)cc1S(=O)(=O)N1CCOCC1,inactive,–

Structure (SMILES),Potency,"activity, negative = inhibition"
COc1ccc(OC)c(NC(=O)Cn2cc(C(=O)c3ccc(Cl)cc3)c(=O)c3cc(OC)ccc32)c1,inactive,–
Cc1ccc(CNC(=O)c2ccc(Cn3cc(-c4ccc(C)cc4)nc3-c3ccncc3)cc2)cc1,inactive,–
CC(=O)Nc1ccc(OC(=O)CC2SC(=O)NC2=O)cc1 (configuration not stated),"inconclusive: 89.1 µM [inhibitor, single point]",–
O=C(/C=C/c1ccc2ccccc2n1)N1CCN(S(=O)(=O)c2ccc(F)cc2)CC1,"inconclusive: 70.8 µM [inhibitor, partial curve]",–
CCn1cc(/C=C(\NC(=O)c2cc(OC)c(OC)c(OC)c2)C(=O)N2CCN(C)CC2)c2ccccc21,"inconclusive: 35.5 µM [inhibitor, partial curve, poor fit]",–
CN(C)CCn1c2c(c(SCC(=O)Nc3ccccc3C(F)(F)F)nc1=O)CCCC2,–,inactive: 7.38% [at 0.501 µM]
COc1ccccc1NS(=O)(=O)c1cc(NC(=O)c2ccc(Cl)nc2)ccc1Cl,"inconclusive: 79.4 µM [inhibitor, single point]",–
COc1ccc(OC)c(CCNC(=O)CN2C(=O)COc3ccc(S(=O)(=O)N4CCCCCC4)cc32)c1,"inconclusive: 14.1 µM [inhibitor, partial curve, poor fit]",–
O=C(O)/C=C/C(=O)NNc1ccc([N+](=O)[O-])cc1,active: 7.94 µM,–
CC(=O)c1nc(-c2ccccc2)sc1C,inactive,–
Cc1[nH]c2ccccc2c1/C=C(\C#N)C(=O)NC(C)c1ccccc1 (configuration not stated),"inconclusive: 44.7 µM [inhibitor, partial curve, poor fit]",–
O=C(Nc1cc(C(F)(F)F)ccc1N1CCOCC1)c1c(F)c(F)c(F)c(F)c1F,inactive,–
CN(CC(=O)Nc1ccc(N2CCOCC2)cc1)Cc1c(O)ccc2ccccc12,active: 0.501 µM,–
COc1ccc(-c2cc(=O)c3cc(OC)ccc3[nH]2)cc1,active: 79.4 µM,–
Fc1ccccc1C1=NC(c2ccc(C(F)(F)F)cc2)=Nc2ccccc2N1,inactive,–
CCOc1ccccc1CN1CCc2nc(Nc3ccccc3)ncc2C1,inactive,–
O=C(O)c1cccc(Cl)n1,active: 39.8 µM,–
CCOc1ccc(N2C(=O)CC(N(CCc3ccc(OC)cc3)C(=O)c3cccc(F)c3)C2=O)cc1 (configuration not stated),inactive,–
CN1CCN(C2=Cc3ccccc3Sc3cc(F)c(F)cc32)CC1,"inconclusive: 28.2 µM [inhibitor, single point]",–
N#Cc1c2n(c3c(=O)n(CC(=O)c4ccc([N+](=O)[O-])cc4)cnc13)CCCCC2,inactive,–
COc1cc(/C=N/NC(=O)C(=O)Nc2ccccn2)ccc1O,inactive,–
